The text below walks through data of publication PMC4336329 (PLoS ONE, 2015).

Out of some 310,000 compounds screened, about 14,000 (4.5%) showed an effect of 50% or more. Effects have a minus sign here. The list shows a part of the results.
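Further: peak tail current of the secondary pulse compared with the same well before compound.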

Chain of human ether-à-go-go-related gene (hERG) potassium channel (Q12809 whole entry, looked up): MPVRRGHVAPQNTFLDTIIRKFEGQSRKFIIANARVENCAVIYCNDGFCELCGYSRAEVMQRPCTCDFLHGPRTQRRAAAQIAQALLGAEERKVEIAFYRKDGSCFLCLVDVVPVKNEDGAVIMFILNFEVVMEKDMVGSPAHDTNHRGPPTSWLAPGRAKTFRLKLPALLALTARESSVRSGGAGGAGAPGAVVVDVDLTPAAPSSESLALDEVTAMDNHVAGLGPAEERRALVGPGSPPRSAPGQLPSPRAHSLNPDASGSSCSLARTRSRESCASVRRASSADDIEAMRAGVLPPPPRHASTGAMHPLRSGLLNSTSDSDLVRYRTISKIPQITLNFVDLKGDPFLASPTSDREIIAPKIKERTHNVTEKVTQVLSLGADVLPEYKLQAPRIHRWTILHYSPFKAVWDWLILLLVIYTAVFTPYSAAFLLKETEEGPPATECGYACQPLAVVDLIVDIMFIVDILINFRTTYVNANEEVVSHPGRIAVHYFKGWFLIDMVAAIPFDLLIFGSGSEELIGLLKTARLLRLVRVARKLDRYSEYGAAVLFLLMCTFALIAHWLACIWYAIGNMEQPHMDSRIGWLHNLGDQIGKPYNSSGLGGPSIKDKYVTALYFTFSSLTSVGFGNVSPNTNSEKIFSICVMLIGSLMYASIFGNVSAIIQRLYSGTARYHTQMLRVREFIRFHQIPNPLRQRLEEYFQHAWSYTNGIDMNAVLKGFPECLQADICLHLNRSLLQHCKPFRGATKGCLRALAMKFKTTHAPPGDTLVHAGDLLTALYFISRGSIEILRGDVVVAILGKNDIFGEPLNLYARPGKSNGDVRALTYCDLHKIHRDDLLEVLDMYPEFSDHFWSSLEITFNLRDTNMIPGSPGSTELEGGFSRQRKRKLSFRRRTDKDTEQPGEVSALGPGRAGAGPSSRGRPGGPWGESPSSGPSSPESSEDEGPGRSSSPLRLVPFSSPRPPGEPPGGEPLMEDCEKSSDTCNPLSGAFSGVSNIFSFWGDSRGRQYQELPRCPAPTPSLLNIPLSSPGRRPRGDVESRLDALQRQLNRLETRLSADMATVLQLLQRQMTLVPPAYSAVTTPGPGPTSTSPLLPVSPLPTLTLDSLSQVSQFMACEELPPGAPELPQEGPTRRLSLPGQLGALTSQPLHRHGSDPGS

The assay has as its target human ether-à-go-go-related gene (hERG) potassium channel (human, UniProt Q12809). The assay is described as follows: primary screen, population patch clamp on CHO cells stably expressing hERG.
Regarding `CC1CCCN(C(=O)NC(=O)c2ccc(Cl)cc2)C1` (centres unmarked), the “hERG current change (%, negative = inhibition) at 10uM” value amounted to 3.85%.
For `COc1cc(CNCCNC(=O)c2nonc2N)ccc1OCc1ccc(Cl)cc1.Cl`, the “hERG current change (%, negative = inhibition) at 10uM” value is given as -74.4%.
As to `Cl.O=C(Nc1cccc(F)c1)[C@@H]1CCCN1`, the “hERG current change (%, negative = inhibition) at 10uM” value is reported as 17.2%.
With `C=CCn1c(=NC(=O)c2ccc(S(=O)(=O)N3CCCC3)cc2)sc2cc(NC(C)=O)ccc21`, the “hERG current change (%, negative = inhibition) at 10uM” value is recorded as -9.96%.
`Cc1ccccc1OCC(=O)Nc1ccc2c(c1)Cc1ccccc1-2`: the “hERG current change (%, negative = inhibition) at 10uM” value is -3.31%.
As to `COc1ccccc1OCc1nc(C#N)c(NCc2ccco2)o1`, the “hERG current change (%, negative = inhibition) at 10uM” value is on record as -6.35%.
Then `COc1cc2c(cc1OC)C(C)N(C(=O)CCc1c[nH]c3ccccc13)CC2` (centres unmarked), with 10.2%.
Turning to `CS(=O)(=O)c1ccc(-c2nnc(NC(=O)c3ccco3)o2)cc1`, the “hERG current change (%, negative = inhibition) at 10uM” value amounted to 13.9%.
For the molecule `CNC(=O)NC(=O)C(c1ccccc1)N(C)CC1COc2ccccc2O1` (centres unmarked), the “hERG current change (%, negative = inhibition) at 10uM” value is reported as 10.8%.
`COc1cc(OC)cc(C(=O)N2CCC(N3CCN(c4ccccc4OC)CC3)CC2)c1.O=C(O)C(F)(F)F`: the “hERG current change (%, negative = inhibition) at 10uM” value was -23.4%.
Then `COCCNC(=O)C(c1ccncc1)N(C(=O)Cn1nnc2ccccc21)c1ccc(OC)cc1` (centres unmarked), with 6.46%; and `COc1ccccc1C(=O)Nc1c(C)cc(Br)cc1C`, with 7.12%.
As for `COc1ccc(Cc2nnc(-c3cccc(C)c3)o2)cc1OC`, the “hERG current change (%, negative = inhibition) at 10uM” value is reported as 6.9%.
The figure for `CCc1nnc(NC(=O)CSc2nc3ccccc3s2)s1` is -0.994%; for `CC(=O)c1ccc(N2CCN(C(=O)C3CCN(S(=O)(=O)Cc4ccccc4)CC3)CC2)cc1` it is 3.03%; for `COc1ccc(NC(=S)N2CCC(C(=O)c3ccc(OC)cc3)CC2)cc1` it is -45.4%.
On to `O=c1cc(CN2CCN(c3cccc(Cl)c3)CC2)c2cc3c(cc2o1)CCCC3`, for which the “hERG current change (%, negative = inhibition) at 10uM” value stood at 15.8%.
Take `COc1cc(NC(=O)CSc2nc(=O)n(CCN3CCOCC3)c3c2CCC3)cc(OC)c1`: the “hERG current change (%, negative = inhibition) at 10uM” value is listed as -41.9%.
The figure for `O=C(N/N=C\c1ccc(S(=O)(=O)[O-])o1)c1ccc2c(c1)OCO2.[Na+]` is 22.9%; for `CC1CCC2(CC1)SCC(=O)N2c1ccccc1` (centres unmarked) it is 0.289%; for `CCOc1cc(S(=O)(=O)n2c(C)nc3ccccc32)ccc1F` it is -3.78%.
For `Cc1ccc(-n2[nH]c(C)c(/C=N/Nc3ccc([N+](=O)[O-])cc3[N+](=O)[O-])c2=O)cc1C`, the “hERG current change (%, negative = inhibition) at 10uM” value is reported as 21%.
Then `N/C(=N\OC(=O)CCn1cccc(C(F)(F)F)c1=O)c1ccc(Cl)cc1`, with -12.7%; and `O=c1c([N+](=O)[O-])c(N2CCCCCC2)c2ccccc2n1-c1ccccc1`, with 19.6%.
Then `COc1ccc(C(C(=O)NC2CCCC2)N(Cc2cccnc2)C(=O)Cc2cccs2)cc1OC` (centres unmarked), with -1.66%; and `Cc1cc2nc(C3CCN(Cc4nnnn4Cc4cccs4)CC3)[nH]c2cc1C`, with -83%; and `COc1ccccc1C(=O)NC(=S)Nc1ccc2[nH]c(=O)[nH]c2c1`, with 26.1%.
For the molecule `Cc1ccc(/C=N/NC(=O)c2nnn(-c3nonc3N)c2CSc2ccc(Cl)cc2)cc1`, the “hERG current change (%, negative = inhibition) at 10uM” value is reported as 15.5%.
Regarding `Cc1nc2ccccc2c(=O)n1/N=C/C=C/c1ccccc1`, the “hERG current change (%, negative = inhibition) at 10uM” value was -0.928%.
For `Cc1ccc2nc(SCC(=O)Nc3cc(C(F)(F)F)ccc3N3CCOCC3)[nH]c2c1`, the “hERG current change (%, negative = inhibition) at 10uM” value stood at 7.28%.
Consider `CCCCC(=O)Nc1ccc2c(c1)oc1ccccc12`, for which the “hERG current change (%, negative = inhibition) at 10uM” value is listed as 0.195%.
The figure for `CCn1c(=O)c(CCC(=O)NCCN2CCOCC2)c(C)c2c(C)nn(-c3cccc(C)c3)c21` is -6.38%.
As for `CC1CN(C(=O)CSc2nnc(CNC(=O)c3ccc(S(=O)(=O)N(C)C)cc3)o2)CC(C)O1` (centres unmarked), the “hERG current change (%, negative = inhibition) at 10uM” value amounted to 21.1%.
In the case of `COCC(=O)Nc1ccc(S(=O)(=O)N2CCCC2)cc1`, the “hERG current change (%, negative = inhibition) at 10uM” value is 19.9%.
The figure for `N#Cc1cn(CCOC(=O)c2cccc(C(F)(F)F)c2)c(=O)[nH]c1=O` is 4.61%; for `CCC(C)Cn1c(C(C)O)nc2ccccc21` (centres unmarked) it is 0.00748%; for `CCC(OC(=O)CNS(=O)(=O)c1ccccc1)C(=O)c1ccccc1` (centres unmarked) it is 6.71%.
As for `CCCC(=O)c1ccc(N2CCOCC2)c(F)c1`, the “hERG current change (%, negative = inhibition) at 10uM” value was found to be 5.76%.
In the case of `COc1cc(C2C3=C(Nc4ncnn42)c2ccccc2CC3)cc(OC)c1OC` (centres unmarked), the “hERG current change (%, negative = inhibition) at 10uM” value is -17.3%.
The figure for `O=C(CSc1nnnn1Cc1ccccc1)Nc1ccc2c(c1)OCCO2` is -3.63%; for `N#CCO/N=C/C(=O)Nc1ccc(F)cc1F` it is 2.49%; for `COC(=O)c1ccc(NC(=O)CS(=O)(=O)Cc2ccccc2)cc1` it is 1.28%.
Then `CN(CC(=O)O)Cc1nc2ccccc2[nH]1.Cl`, with 6.63%; and `Cl.O=C1Cc2ccccc2Sc2cc(OCCCN3CCCCC3)ccc21`, with -69.8%.
